Experimental data taken from the supplement of paper PMC8728848.
The other results are listed elsewhere or left out.

Legend:
Assay in all cases: glycan array binding signal (z-score within array); higher = stronger binding
Details in all cases: glycan notation: IUPAC condensed, linker removed
[1] = biological target: Gal(a1-3)Gal(b1-4)GlcNAc(b1-2)Man
Outline: (§1)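 The Consortium for Functional Glycomics database supplied 3228 glycan arrays, of which those lacking an available protein sequence were dropped. The binding signal, a within-array Z-score, was averaged across arrays of the same protein sequence and across linkers. Negative scores can be read as non-binding.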

[2] = biological target: Gal(a1-3)Gal(b1-4)GlcNAc(b1-2)Man(a1-3)[Gal(a1-3)Gal(b1-4)GlcNAc(b1-2)Man(a1-6)]Man(b1-4)GlcNAc(b1-4)GlcNAc
Outline: as §1

[3] = biological target: Gal(a1-3)Gal(b1-4)GlcNAc(b1-3)GalNAc
Outline: as §1

[4] = biological target: Gal(a1-3)Gal(b1-4)GlcNAc(b1-6)GalNAc
Outline: as §1

[5] = biological target: Gal(a1-3)Gal(b1-4)[Fuc(a1-3)]GlcNAc
Outline: as §1

[6] = biological target: Gal(a1-3)Gal(b1-4)[Fuc(a1-3)]GlcNAc(b1-2)Man(a1-3)[Gal(a1-3)Gal(b1-4)[Fuc(a1-3)]GlcNAc(b1-2)Man(a1-6)]Man(b1-4)GlcNAc(b1-4)GlcNAc
Outline: as §1

[7] = biological target: Gal(a1-3)GalNAc
Outline: as §1

[8] = biological target: Gal(a1-3)[Gal(a1-4)]Gal(b1-4)GlcNAc
Outline: as §1

[9] = biological target: Gal(a1-4)Gal(b1-3)GlcNAc(b1-2)Man(a1-3)[Gal(a1-4)Gal(b1-3)GlcNAc(b1-2)Man(a1-6)]Man(b1-4)GlcNAc(b1-4)GlcNAc
Outline: as §1

[10] = biological target: Gal(a1-4)Gal(b1-4)Glc
Outline: as §1

[11] = biological target: Gal(a1-4)Gal(b1-4)GlcNAc
Outline: as §1

[12] = biological target: Gal(a1-4)Gal(b1-4)GlcNAc(b1-2)Man(a1-3)[Gal(a1-4)Gal(b1-4)GlcNAc(b1-2)Man(a1-6)]Man(b1-4)GlcNAc(b1-4)GlcNAc
Outline: as §1

[13] = biological target: Gal(a1-4)Gal(b1-4)GlcNAc(b1-3)Gal(b1-4)Glc
Outline: as §1

[14] = biological target: Gal(a1-4)GlcNAc
Outline: as §1

[15] = biological target: Gal(a1-6)Glc
Outline: as §1

[16] = biological target: Gal(b1-2)Gal
Outline: as §1

[17] = biological target: Gal(b1-3)Gal
Outline: as §1

[18] = biological target: Gal(b1-3)Gal(b1-4)GlcNAc
Outline: as §1

[19] = biological target: Gal(b1-3)GalNAc
Outline: as §1

[20] = biological target: Gal(b1-3)GalNAc(a1-3)[Fuc(a1-2)]Gal(b1-4)Glc
Outline: as §1

[21] = biological target: Gal(b1-3)GalNAc(a1-3)[Fuc(a1-2)]Gal(b1-4)GlcNAc
Outline: as §1

[22] = biological target: Gal(b1-3)GalNAc(b1-3)Gal
Outline: as §1

[23] = biological target: Gal(b1-3)GalNAc(b1-3)Gal(a1-4)Gal(b1-4)Glc
Outline: as §1

[24] = biological target: Gal(b1-3)GalNAc(b1-4)Gal(b1-4)Glc
Outline: as §1

[25] = biological target: Gal(b1-3)GalNAc(b1-4)[Neu5Ac(a2-3)]Gal(b1-4)Glc
Outline: as §1

[26] = biological target: Gal(b1-3)GlcNAc
Outline: as §1

[27] = biological target: Gal(b1-3)GlcNAc(a1-3)Gal(b1-4)GlcNAc
Outline: as §1

[28] = biological target: Gal(b1-3)GlcNAc(a1-6)Gal(b1-4)GlcNAc
Outline: as §1

[29] = biological target: Gal(b1-3)GlcNAc(b1-2)Man
Outline: as §1

[30] = biological target: Gal(b1-3)GlcNAc(b1-2)Man(a1-3)[Gal(b1-3)GlcNAc(b1-2)Man(a1-6)]Man(b1-4)GlcNAc(b1-4)GlcNAc
Outline: as §1

[31] = biological target: Gal(b1-3)GlcNAc(b1-2)Man(a1-3)[Gal(b1-3)GlcNAc(b1-2)Man(a1-6)]Man(b1-4)GlcNAc(b1-4)[Fuc(a1-6)]GlcNAc
Outline: as §1

[32] = biological target: Gal(b1-3)GlcNAc(b1-2)Man(a1-3)[GlcNAc(b1-4)][Gal(b1-3)GlcNAc(b1-2)Man(a1-6)]Man(b1-4)GlcNAc(b1-4)GlcNAc
Outline: as §1

[33] = biological target: Gal(b1-3)GlcNAc(b1-2)[Gal(b1-3)GlcNAc(b1-6)]Man(a1-6)[Gal(b1-3)GlcNAc(b1-2)Man(a1-3)]Man(b1-4)GlcNAc(b1-4)GlcNAc
Outline: as §1

[34] = biological target: Gal(b1-3)GlcNAc(b1-3)Gal(b1-3)GlcNAc
Outline: as §1

[35] = biological target: Gal(b1-3)GlcNAc(b1-3)Gal(b1-4)Glc
Outline: as §1

[36] = biological target: Gal(b1-3)GlcNAc(b1-3)Gal(b1-4)GlcNAc
Outline: as §1

[37] = biological target: Gal(b1-3)GlcNAc(b1-3)Gal(b1-4)GlcNAc(b1-2)Man(a1-3)[Gal(b1-3)GlcNAc(b1-3)Gal(b1-4)GlcNAc(b1-2)Man(a1-6)]Man(b1-4)GlcNAc(b1-4)GlcNAc
Outline: as §1

[38] = biological target: Gal(b1-3)GlcNAc(b1-3)Gal(b1-4)GlcNAc(b1-2)[Gal(b1-3)GlcNAc(b1-3)Gal(b1-4)GlcNAc(b1-6)]Man(a1-6)[Gal(b1-3)GlcNAc(b1-3)Gal(b1-4)GlcNAc(b1-2)Man(a1-3)]Man(b1-4)GlcNAc(b1-4)[Fuc(a1-6)]GlcNAc
Outline: as §1

[39] = biological target: Gal(b1-3)GlcNAc(b1-3)Gal(b1-4)GlcNAc(b1-3)Gal(b1-4)GlcNAc(b1-2)[Gal(b1-3)GlcNAc(b1-3)Gal(b1-4)GlcNAc(b1-3)Gal(b1-4)GlcNAc(b1-6)]Man(a1-6)[Gal(b1-3)GlcNAc(b1-3)Gal(b1-4)GlcNAc(b1-3)Gal(b1-4)GlcNAc(b1-2)Man(a1-3)]Man(b1-4)GlcNAc(b1-4)[Fuc(a1-6)]GlcNAc
Outline: as §1

[40] = biological target: Gal(b1-3)GlcNAc(b1-3)Gal(b1-4)GlcNAc(b1-6)[Gal(b1-3)GlcNAc(b1-3)]Gal(b1-4)Glc
Outline: as §1

[41] = biological target: Gal(b1-3)GlcNAc(b1-3)Gal(b1-4)[Fuc(a1-3)]GlcNAc
Outline: as §1

[42] = biological target: Gal(b1-3)GlcNAc(b1-3)Gal(b1-4)[Fuc(a1-3)]GlcNAc(b1-6)[Gal(b1-3)GlcNAc(b1-3)]Gal(b1-4)Glc
Outline: as §1

[43] = biological target: Gal(b1-3)GlcNAc(b1-3)GalNAc
Outline: as §1

[44] = biological target: Gal(b1-3)GlcNAc(b1-6)Gal(b1-4)GlcNAc
Outline: as §1

[45] = biological target: Gal(b1-3)GlcNAc(b1-6)GalNAc
Outline: as §1

B1: TIM1 (protein)
chain: ADGIQSVKVGGEAGPSVTLPCHYSGAVTSMCWNRGSCSLFTCQNGIVWTNGTHVTYRKDTRYKLLGDLSRRDVSLTIENTAVSDSGVYCCRVEHRGWFNDMKITVSLEIVPPHHHHHH
glycan array binding signal (z-score) [1]: -0.212
glycan array binding signal (z-score) [2]: 0.343
glycan array binding signal (z-score) [3]: -0.256
glycan array binding signal (z-score) [4]: -0.141
glycan array binding signal (z-score) [5]: -0.177
glycan array binding signal (z-score) [6]: -0.138
glycan array binding signal (z-score) [7]: 0.025
glycan array binding signal (z-score) [8]: 0.219
glycan array binding signal (z-score) [9]: -0.248
glycan array binding signal (z-score) [10]: -0.049
glycan array binding signal (z-score) [11]: -0.2
glycan array binding signal (z-score) [12]: -0.176
glycan array binding signal (z-score) [13]: -0.138
glycan array binding signal (z-score) [14]: -0.169
glycan array binding signal (z-score) [15]: -0.145
glycan array binding signal (z-score) [16]: -0.144
glycan array binding signal (z-score) [17]: -0.226
glycan array binding signal (z-score) [18]: -0.26
glycan array binding signal (z-score) [19]: -0.197
glycan array binding signal (z-score) [20]: -0.191
glycan array binding signal (z-score) [21]: -0.255
glycan array binding signal (z-score) [22]: -0.176
glycan array binding signal (z-score) [23]: -0.23
glycan array binding signal (z-score) [24]: -0.095
glycan array binding signal (z-score) [25]: -0.226
glycan array binding signal (z-score) [26]: -0.229
glycan array binding signal (z-score) [27]: -0.21
glycan array binding signal (z-score) [28]: -0.213
glycan array binding signal (z-score) [29]: -0.147
glycan array binding signal (z-score) [30]: -0.172
glycan array binding signal (z-score) [31]: -0.048
glycan array binding signal (z-score) [32]: -0.097
glycan array binding signal (z-score) [33]: -0.186
glycan array binding signal (z-score) [34]: -0.191
glycan array binding signal (z-score) [35]: -0.231
glycan array binding signal (z-score) [36]: -0.272
glycan array binding signal (z-score) [37]: -0.185
glycan array binding signal (z-score) [38]: 0.883
glycan array binding signal (z-score) [39]: 0.247
glycan array binding signal (z-score) [40]: -0.228
glycan array binding signal (z-score) [41]: -0.24
glycan array binding signal (z-score) [42]: -0.275
glycan array binding signal (z-score) [43]: -0.16
glycan array binding signal (z-score) [44]: -0.276
glycan array binding signal (z-score) [45]: -0.211
